# For part of these data: Most of the hits are listed elsewhere, so they are rarer here than in the full data. Records with an inconclusive call do not appear. Only a part is listed here, and it is no random draw. Activity calls are given as the source filed them. How the source made its calls, unless noted: active means hit-call score of the fitted dose curve at least 0.9, where 1 is the maximum; inactive means score below 0.9.
# Legend:
# [1] = read-out: Vascular cell adhesion molecule 1 (VCAM1), VCAM1 (gene 7412); assay: BSK_hDFCGF_VCAM1: BioMAP Diversity Plus: hDFCGF Assay for Vascular cell adhesion molecule 1 (VCAM1) Biomarker Activity (AID 2283065); conditions: actives raise or lower the signal; primary human foreskin fibroblasts
# Procedure, shortened: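 Cells are dosed, cultured for 24 h, then VCAM-1 is quantified by ELISA; signal increases and decreases are both fitted relative to DMSO.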
# [2] = read-out: serum amyloid A (SAA), SAA1 (gene 6288); assay: BSK_CASM3C_SAA: BioMAP Diversity Plus: CASM3C Assay for serum amyloid A (SAA) Biomarker Activity (AID 2283049); conditions: actives raise or lower the signal; primary human coronary artery smooth muscle cells;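 further: SAA protein level quantified by ELISA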
# [3] = read-out: Transforming growth factor beta 1 (TGFb1), TGFB1 (gene 7040); assay: BSK_KF3CT_TGFb1: BioMAP Diversity Plus: KF3CT Assay for Transforming growth factor beta 1 (TGFb1) Biomarker Activity (AID 2283072); conditions: actives raise or lower the signal; primary human keratinocytes with fibroblasts
# Procedure, shortened: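 Human keratinocyte plus foreskin fibroblast primary co-culture, dosed with chemical for 24 h. TGF-b1 quantified by ELISA. Activity fitted bidirectionally against DMSO negative control as baseline.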
# [4] = read-out: CD40, CD40 (gene 958); assay: BSK_LPS_CD40: BioMAP Diversity Plus: LPS Assay for CD40 Biomarker Activity (AID 2283076); conditions: actives raise or lower the signal; primary human HUVEC with PBMC
# Procedure, shortened: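 CD40 signal, measured by ELISA, is fitted in both directions relative to DMSO vehicle. The system is an LPS-driven human vascular primary co-culture of endothelial cells and PBMC, sampled 24 h after compound addition.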
# [5] = read-out: Vascular cell adhesion molecule 1 (VCAM1), VCAM1 (gene 7412); assay: BSK_LPS_VCAM1: BioMAP Diversity Plus: LPS Assay for Vascular cell adhesion molecule 1 (VCAM1) Biomarker Activity (AID 2283086); conditions: actives raise or lower the signal; primary human HUVEC with PBMC
# Procedure, shortened: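 Human umbilical vein endothelial cells co-cultured with peripheral blood mononuclear cells under LPS stimulation were exposed to test chemical for 24 h. VCAM-1 levels were then measured by ELISA, with bidirectional curve fitting relative to DMSO as negative control and baseline.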
# [6] = read-out: growth arrest and DNA damage 45 (GADD45G), GADD45G (gene 10912); assay: LTEA_HepaRG_GADD45G: Life Technologies and Expression Analysis (LTEA) Assay for growth arrest and DNA damage 45 (GADD45G) using HepaRG (AID 2283499); conditions: actives raise or lower the signal; mRNA level, 48 h
# Procedure, shortened: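 Human hepatic HepaRG line treated 48 h with chemicals (eight concentrations, half-log steps from 100 uM); transcript induction or repression of GADD45G scored by qRT-PCR versus DMSO vehicle.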
# [7] = read-out: Interleukin 6 (IL6), IL6 (gene 3569); assay: LTEA_HepaRG_IL6: Life Technologies and Expression Analysis (LTEA) Assay for Interleukin 6 (IL6) using HepaRG (AID 2283509); conditions: actives raise or lower the signal; mRNA level, 48 h
# Procedure, shortened: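 HepaRG cells exposed in duplicate for 48 h to eight half-log concentrations, top 100 uM, in 0.5% DMSO serum-free induction medium. mRNA measured by qRT-PCR, normalized to ACTB, GAPDH and POLR2A. Bidirectional fit versus DMSO.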
# [8] = read-out: NAD(P)H dehydrogenase [quinone] 1 (NQO1), NQO1 (gene 1728); assay: LTEA_HepaRG_NQO1: Life Technologies and Expression Analysis (LTEA) Assay for NAD(P)H dehydrogenase [quinone] 1 (NQO1) using HepaRG (AID 2283526); conditions: actives raise or lower the signal; mRNA level, 48 h
# Procedure, shortened: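 Differentiated HepaRG cells, plated 48 h and then switched to serum-free induction medium, were exposed in duplicate for 48 h to 8-point half-log concentrations up to 100 uM in 0.5% DMSO. mRNA measured by qRT-PCR, normalized to ACTB, GAPDH, POLR2A; bidirectional fit versus DMSO.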
# [9] = read-out: Epidermal growth factor receptor (EGFR), EGFR (gene 1956); assay: BSK_hDFCGF_EGFR: BioMAP Diversity Plus: hDFCGF Assay for Epidermal growth factor receptor (EGFR) Biomarker Activity (AID 2283057); conditions: actives raise or lower the signal; primary human foreskin fibroblasts
# Procedure, shortened: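 Primary human foreskin fibroblasts were exposed to compound for 24 h, after which cell-surface EGFR was quantified by ELISA. Activity was fitted bidirectionally against the DMSO negative control as baseline.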
# [10] = BSK_hDFCGF_Proliferation: Cell Proliferation Assessment in the BioMAP Diversity Plus: hDFCGF Assay (AID 2283059); conditions: primary human foreskin fibroblasts;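 further: curves fitted for both rise and fall of signal versus DMSO baseline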
# Procedure, shortened: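 Sub-confluent human foreskin fibroblast cultures receive test chemical […]. Relative cell number is quantified by sulforhodamine B staining (0.1%, after 10% TCA fixation) at 560 nm, with bidirectional fitting referenced to DMSO.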
# [11] = target: rat Serotonin Transporter (SERT), Slc6a4 (gene 25553) (UniProt P31652); assay: NVS_TR_rSERT: NovaScreen (NVS) Transporter Assay for rat Serotonin Transporter (SERT) (AID 2283375; active means hit-call score of the fitted dose curve at least 0.9, where 1 is the maximum)
# UniProt P31652, sequence (P31652 whole entry, looked up): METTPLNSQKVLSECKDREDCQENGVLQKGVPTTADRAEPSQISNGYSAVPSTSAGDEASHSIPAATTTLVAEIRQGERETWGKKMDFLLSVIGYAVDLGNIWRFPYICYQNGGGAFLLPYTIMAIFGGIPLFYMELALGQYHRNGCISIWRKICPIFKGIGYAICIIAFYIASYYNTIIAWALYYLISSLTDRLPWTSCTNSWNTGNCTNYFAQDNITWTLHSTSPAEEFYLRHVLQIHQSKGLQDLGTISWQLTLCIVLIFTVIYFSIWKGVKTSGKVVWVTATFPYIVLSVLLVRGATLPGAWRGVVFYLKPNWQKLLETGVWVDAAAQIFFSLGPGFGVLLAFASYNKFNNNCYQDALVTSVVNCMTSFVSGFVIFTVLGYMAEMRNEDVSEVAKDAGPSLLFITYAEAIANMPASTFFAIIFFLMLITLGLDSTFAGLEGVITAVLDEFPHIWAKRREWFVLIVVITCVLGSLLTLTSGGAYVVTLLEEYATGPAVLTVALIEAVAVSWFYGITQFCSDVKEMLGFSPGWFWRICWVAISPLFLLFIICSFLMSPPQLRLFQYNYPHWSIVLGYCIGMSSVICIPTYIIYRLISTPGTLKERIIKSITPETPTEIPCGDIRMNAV
# Procedure, shortened: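 Steps: rat forebrain membranes dosed with chemical (25 uM duplicate primary; concentration series for actives); 1 h incubation; labelled ligand bound, filtered, counted by scintillation. Activity scored as signal loss vs DMSO.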
# [12] = TOX21_p53_BLA_p2_viability: Viability Assessment in the Tox21 HCT-116 p53 Agonism Beta-lactamase Assay, Phase 2 (AID 2283591; active means hit-call score of the fitted dose curve at least 0.9, where 1 is the maximum;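 further: compound exposure lasted 16 h at 37 °C; actives lower the ATP signal meaning cytotoxicity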)
# Procedure, shortened: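 HCT116 p53-bla cells, 4000/well, dosed after 5 h plating (217-fold dilution of DMSO stocks) and incubated 16 h at 37C. Viability taken as cellular ATP by CellTiter-Glo luminescence after 30 min RT; signal loss marks cytotoxicity.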
# [13] = read-out: Urokinase-type plasminogen activator receptor (uPAR), PLAUR (gene 5329); assay: BSK_CASM3C_uPAR: BioMAP Diversity Plus: CASM3C Assay for Urokinase-type plasminogen activator receptor (uPAR) Biomarker Activity (AID 2283054); conditions: actives raise or lower the signal; primary human coronary artery smooth muscle cells;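 further: cell-surface uPAR protein level quantified by ELISA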
# [14] = read-out: Matrix Metallopeptidase 1 (MMP1), MMP1 (gene 4312); assay: BSK_hDFCGF_MMP1: BioMAP Diversity Plus: hDFCGF Assay for Matrix Metallopeptidase 1 (MMP1) Biomarker Activity (AID 2283064); conditions: actives raise or lower the signal; primary human foreskin fibroblasts
# Procedure, shortened: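 Primary human foreskin fibroblasts exposed to chemicals for 24 h; MMP1 measured by ELISA. Cytotoxicity tracked by SRB staining in parallel cultures; bidirectional fit relative to DMSO.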
# [15] = target: human Opioid Receptor Mu (Opiate Mu), OPRM1 (gene 4988) (UniProt P35372); assay: NVS_GPCR_hOpiate_mu: NovaScreen (NVS) G Protein-Coupled Receptor Assay for human Opioid Receptor Mu (Opiate Mu) (AID 2283290; active means hit-call score of the fitted dose curve at least 0.9, where 1 is the maximum;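 further: hits lower bound tracer signal versus DMSO meaning displacement of the ligand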)
# UniProt P35372, sequence (P35372 whole entry, looked up): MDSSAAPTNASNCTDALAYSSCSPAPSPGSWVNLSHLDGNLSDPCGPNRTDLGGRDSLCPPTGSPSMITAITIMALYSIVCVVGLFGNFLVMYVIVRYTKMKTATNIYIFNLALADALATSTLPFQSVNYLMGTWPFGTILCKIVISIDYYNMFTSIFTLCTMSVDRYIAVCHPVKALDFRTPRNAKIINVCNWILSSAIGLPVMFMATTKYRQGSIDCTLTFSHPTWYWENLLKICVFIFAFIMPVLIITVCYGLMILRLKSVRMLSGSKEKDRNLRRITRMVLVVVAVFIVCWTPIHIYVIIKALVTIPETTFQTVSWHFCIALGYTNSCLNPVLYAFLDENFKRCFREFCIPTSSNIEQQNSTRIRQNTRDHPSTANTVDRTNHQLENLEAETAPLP
# Procedure, shortened: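 Cell-free radioligand binding to membranes from CHO cells expressing the receptor; bound tracer measured by filter-based scintillation counting 2.5 hours after dosing. Loss of signal versus DMSO baseline reflects displacement; primary screen at 25 uM in duplicate, actives followed up in concentration series.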
# [16] = target: mouse Estrogen Receptor alpha (Era), Esr1 (gene 13982) (UniProt P19785); assay: NVS_NR_mERa: NovaScreen (NVS) Nuclear Receptor Binding Assay for mouse Estrogen Receptor alpha (Era) (AID 2283378; active means hit-call score of the fitted dose curve at least 0.9, where 1 is the maximum;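 further: hit means loss of bound radioligand signal relative to DMSO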)
# UniProt P19785, sequence (P19785 whole entry, looked up): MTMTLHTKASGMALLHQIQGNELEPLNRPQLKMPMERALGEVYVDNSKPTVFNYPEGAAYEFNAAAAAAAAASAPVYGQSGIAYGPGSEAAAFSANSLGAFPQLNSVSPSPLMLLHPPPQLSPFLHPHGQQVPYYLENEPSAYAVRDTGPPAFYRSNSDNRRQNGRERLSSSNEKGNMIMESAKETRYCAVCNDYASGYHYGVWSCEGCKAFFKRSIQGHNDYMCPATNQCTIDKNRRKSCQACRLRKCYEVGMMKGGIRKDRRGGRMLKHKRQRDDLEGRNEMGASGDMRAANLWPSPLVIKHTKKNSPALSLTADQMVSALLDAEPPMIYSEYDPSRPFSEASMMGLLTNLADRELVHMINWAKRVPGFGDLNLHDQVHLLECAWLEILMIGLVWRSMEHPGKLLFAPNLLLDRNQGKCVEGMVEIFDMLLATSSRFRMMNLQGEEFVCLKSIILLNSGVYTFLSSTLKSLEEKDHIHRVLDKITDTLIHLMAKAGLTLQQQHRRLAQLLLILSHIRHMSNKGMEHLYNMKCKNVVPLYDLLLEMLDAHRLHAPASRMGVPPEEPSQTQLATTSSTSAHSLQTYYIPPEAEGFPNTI
# Procedure, shortened: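 Test chemicals competed against a specific radioligand for binding to cell-free mouse Era. Duplicate wells at 25 uM were read 18 hours later by filter-based radiodetection, with loss of signal against DMSO scored as activity.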
# [17] = read-out: matrix metalloproteinase-3 (MMP3), MMP3 (gene 4314); assay: LTEA_HepaRG_MMP3: Life Technologies and Expression Analysis (LTEA) Assay for matrix metalloproteinase-3 (MMP3) using HepaRG (AID 2283519); conditions: actives raise or lower the signal; mRNA level, 48 h
# Procedure, shortened: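 HepaRG cells (~100,000/well) in serum-free induction medium were dosed in duplicate for 48 h with an 8-point half-log series from 100 uM, 0.5% DMSO. MMP3 mRNA was quantified by Fluidigm TaqMan qRT-PCR, normalized to three housekeeping genes.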
# [18] = read-out: Pyruvate Dehydrogenase Kinase 4 (PDK4), PDK4 (gene 5166); assay: LTEA_HepaRG_PDK4: Life Technologies and Expression Analysis (LTEA) Assay for Pyruvate Dehydrogenase Kinase 4 (PDK4) using HepaRG (AID 2283525); conditions: actives raise or lower the signal; mRNA level, 48 h
# Procedure, shortened: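 HepaRG cells plated 48 h, then switched to serum-free induction medium and exposed in duplicate for 48 h to 8 half-log concentrations from 100 uM in 0.5% DMSO. PDK4 mRNA measured by qRT-PCR, normalized to ACTB, GAPDH and POLR2A; bidirectional fit versus DMSO.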
# [19] = ACEA_AR_agonist_AUC_viability: ACEA Biosciences xCELLigence Real-Time Cell Analysis on Androgen Receptor Agonism for Viability (AID 2283775; active means hit-call score of the fitted dose curve at least 0.9, where 1 is the maximum;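 further: viability read 80 hours after compound addition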)
# Procedure, shortened: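 Read-out is area under the impedance curve at 80 h post-dose in 22Rv1 cells, with DMSO as baseline and signal loss taken as reduced viability. Compounds ran in duplicate from 100 uM final.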
# [20] = read-out: Collagen III, COL3A1 (gene 1281); assay: BSK_hDFCGF_CollagenIII: BioMAP Diversity Plus: hDFCGF Assay for Collagen III Biomarker Activity (AID 2283056); conditions: actives raise or lower the signal; primary human foreskin fibroblasts
# Procedure, shortened: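 Cells: human foreskin fibroblasts, primary. Dosing followed by 24 h incubation, then ELISA for collagen III. Both increases and decreases scored relative to DMSO.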
# [21] = read-out: Interleukin-1 alpha (IL1a), IL1A (gene 3552); assay: BSK_KF3CT_IL1a: BioMAP Diversity Plus: KF3CT Assay for Interleukin-1 alpha (IL1a) Biomarker Activity (AID 2283070); conditions: actives raise or lower the signal; primary human keratinocytes with fibroblasts
# Procedure, shortened: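 Primary human keratinocyte plus foreskin fibroblast co-culture, dosed and measured at 24 h in 96-well plates. IL-1a level quantified by ELISA; bidirectional fit relative to DMSO.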
# [22] = system: guinea pig Histamine Receptor (H2), gene 100729734; assay: NVS_GPCR_gH2: NovaScreen (NVS) G Protein-Coupled Receptor Assay for guinea pig Histamine Receptor (H2) (AID 2283342; active means hit-call score of the fitted dose curve at least 0.9, where 1 is the maximum)
# Procedure, shortened: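 Radioligand displacement on guinea pig striatal membranes, 1 h after dosing, filter-based scintillation counting; loss of signal versus DMSO. Single-point screen at 25 uM in duplicate, then concentration-response up to 50 uM.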
# [23] = read-out: TIMP metallopeptidase inhibitor 2 (TIMP2), TIMP2 (gene 7077); assay: BSK_KF3CT_TIMP2: BioMAP Diversity Plus: KF3CT Assay for TIMP metallopeptidase inhibitor 2 (TIMP2) Biomarker Activity (AID 2283071); conditions: actives raise or lower the signal; primary human keratinocytes with fibroblasts
# Procedure, shortened: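 Human primary keratinocyte/foreskin fibroblast co-culture dosed with chemical and sampled at 24 h. TIMP-2 levels quantified by ELISA; bidirectional fitting against DMSO negative control as baseline.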
compound,measurement,setting,value
CCOCCO,outcome,[1],inactive
Cc1ccc(C(C)C)c(O)c1,outcome,[2],inactive
CC(C)=CCC/C(C)=C\CO,outcome,[3],inactive
same,outcome,[4],inactive
same,outcome,[5],inactive
same,outcome,[6],inactive
same,outcome,[7],inactive
same,outcome,[8],inactive
c1ccc(C(O[C@@H]2CCCN(CCc3ccc4c(c3)OCO4)C2)c2ccccc2)cc1,outcome,[9],inactive
same,AC50,[10],active: 12.5 µM
same,AC50,[11],active: 11 µM
same,outcome,[12],inactive
C=CCOCC(O)CCl (centres undefined),outcome,[3],inactive
N=C(N)c1ccc(OCCCCCOc2ccc(C(=N)N)cc2)cc1,AC50,[13],active: 11.1 µM
same,AC50,[14],active: 21.9 µM
same,AC50,[15],active: 4.35 µM
same,AC50,[16],active: 0.936 µM
same,outcome,[17],inactive
same,AC50,[18],active: 11 µM
same,AC50,[19],active: 24.6 µM
O=C(OCCCCCCOC(=O)c1ccccc1)c1ccccc1,outcome,[20],inactive
O=C(N[C@@H](c1ccccc1)[C@@H]1CCCCN1)c1cccc(C(F)(F)F)c1Cl,AC50,[21],active: 36.1 µM
same,AC50,[22],active: 11.2 µM
O=C=NCCCCCCN=C=O,outcome,[23],inactive

# From PubChem BioAssay (EPA / NIEHS)
